Experimental data: PubChem BioAssay AID1347165 (National Center for Advancing Translational Sciences (NCATS), 2019)
The whole screen tested about 220,000 compounds, of which about 5,700 (2.6%) were called active. This list was built around the results that the source calls inconclusive (neither active nor inactive); the mix of calls is not that of the screen. Calls follow the shape of the dose curve; as a rule, active = well fitted inhibition curve with a large enough effect; inconclusive = small, poorly fitted or top-dose-only effect; inactive = no such curve, though single readings can be large or run the other way. Potencies beside an inconclusive call are fits to weak or partial responses and may not hold up.
Also: nearly all actives have a fitted effect of over 70% in size.
For activity change, negative = inhibition in this document: 0% is about no effect.
Potency is read from the fitted curve at half-maximal effect; tags tell the direction and shape of the fitted curve.

These molecules were tested against Lysine-specific demethylase 5B (Homo sapiens) (UniProt Q9UGL1) (assay: Primary screen for KDM5B Histone Demethylases FDH-coupled qHTS). Details: FDH-coupled NADH fluorescence (FDH is formaldehyde dehydrogenase); activity change, negative = inhibition: at 57.7 µM (top of the series) unless noted.
UniProt Q9UGL1, sequence (Q9UGL1 whole entry, looked up, the tested form may be a part): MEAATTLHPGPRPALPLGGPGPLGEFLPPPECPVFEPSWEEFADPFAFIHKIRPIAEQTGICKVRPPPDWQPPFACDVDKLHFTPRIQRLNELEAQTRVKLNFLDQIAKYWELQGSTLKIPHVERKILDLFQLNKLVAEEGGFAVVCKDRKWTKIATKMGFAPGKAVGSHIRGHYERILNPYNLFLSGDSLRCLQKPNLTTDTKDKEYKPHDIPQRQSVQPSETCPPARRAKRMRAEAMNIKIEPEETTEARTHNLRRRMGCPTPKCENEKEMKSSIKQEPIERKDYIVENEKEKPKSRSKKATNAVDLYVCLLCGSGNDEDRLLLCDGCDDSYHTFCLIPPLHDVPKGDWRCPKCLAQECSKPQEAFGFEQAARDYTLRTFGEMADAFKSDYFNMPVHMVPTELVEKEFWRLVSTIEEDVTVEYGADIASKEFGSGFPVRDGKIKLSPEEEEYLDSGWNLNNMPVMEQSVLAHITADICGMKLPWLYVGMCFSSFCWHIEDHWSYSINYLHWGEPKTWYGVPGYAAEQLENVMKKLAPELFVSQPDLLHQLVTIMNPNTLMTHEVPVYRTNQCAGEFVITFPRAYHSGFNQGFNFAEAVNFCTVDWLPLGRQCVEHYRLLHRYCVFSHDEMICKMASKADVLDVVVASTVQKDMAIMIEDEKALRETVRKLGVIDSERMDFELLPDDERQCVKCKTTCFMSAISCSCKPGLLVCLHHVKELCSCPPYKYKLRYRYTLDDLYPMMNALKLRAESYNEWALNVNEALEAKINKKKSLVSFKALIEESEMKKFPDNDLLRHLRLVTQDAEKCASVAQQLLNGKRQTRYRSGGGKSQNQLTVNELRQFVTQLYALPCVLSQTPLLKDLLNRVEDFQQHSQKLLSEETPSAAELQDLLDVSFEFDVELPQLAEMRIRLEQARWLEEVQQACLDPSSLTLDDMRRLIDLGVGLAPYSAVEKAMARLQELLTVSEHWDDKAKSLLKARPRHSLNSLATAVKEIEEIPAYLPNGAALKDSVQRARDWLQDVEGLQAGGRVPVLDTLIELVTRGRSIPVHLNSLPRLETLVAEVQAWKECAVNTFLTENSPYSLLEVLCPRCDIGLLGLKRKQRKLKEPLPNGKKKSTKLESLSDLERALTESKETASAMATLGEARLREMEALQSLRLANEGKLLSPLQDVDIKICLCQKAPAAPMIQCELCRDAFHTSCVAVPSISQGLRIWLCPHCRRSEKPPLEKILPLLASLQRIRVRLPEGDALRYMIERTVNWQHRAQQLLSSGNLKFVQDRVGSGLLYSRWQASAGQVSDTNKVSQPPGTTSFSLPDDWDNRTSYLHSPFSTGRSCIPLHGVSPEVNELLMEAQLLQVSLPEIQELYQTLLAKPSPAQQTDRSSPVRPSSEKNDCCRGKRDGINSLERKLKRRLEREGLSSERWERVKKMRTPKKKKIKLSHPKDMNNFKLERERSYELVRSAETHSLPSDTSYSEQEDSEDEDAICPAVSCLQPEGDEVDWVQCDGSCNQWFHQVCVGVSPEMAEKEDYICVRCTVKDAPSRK
Procedure, shortened: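 Inhibition is measured as reduced NADH fluorescence generation from FDH coupling to formaldehyde release. Truncated KDM5BΔAP at 200 nM final acts on H3K4me3 peptide (12.5 µM in substrate mix) in pH 7.5 HEPES buffer with Tween-20, 30 min, room temperature.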
For `CSc1nn(Cc2ccc(C)cc2)c(N)c1S(=O)(=O)c1ccccc1`, the activity change, negative = inhibition was inconclusive: -35.5% [inhibitor]. With `Cc1ccc(C(=O)OCCOc2ccc(C#N)cc2)cc1F` the Potency was “inactive”. For `Cc1nn(CC(=O)NCc2ccc(F)cc2F)c(=O)c2nc(-c3ccccc3)sc12`, the Potency was active: 31.6 µM. For `COc1ccc(CC(=O)Nc2ccc(-c3nc4ccccc4s3)c(C)c2)cc1OC`, the Potency was inconclusive: 1.26 µM [inhibitor, full curve, poor fit]. For `COc1ccc(-c2cc(C(F)(F)F)nc(NCCc3ccccc3)n2)cc1OC`, the Potency was inconclusive: 2.51 µM [inhibitor, partial curve, poor fit]. `O=C1Nc2ccc(-c3ccsc3)cc2C(=O)N2C[C@H](O)C[C@@H]12` was tested, and the Potency was “inactive”. In the case of `COc1ccccc1C(=O)Oc1ccc(C(c2c(C)[nH][nH]c2=O)c2c(C)[nH][nH]c2=O)cc1`, the Potency is reported as inconclusive: 1.58 µM [inhibitor, full curve, poor fit]. In the case of `COCCNC(=O)[C@@H]1C[C@H](Oc2cccnc2)CN1C(=O)c1cc2ccc(OC)cc2[nH]1`, the Potency is reported as inconclusive: 31.6 µM [inhibitor, partial curve, poor fit]. In the case of `O=C(Nc1ccc(F)cc1)Nc1sccc1-c1nc2ccccc2s1`, the Potency is reported as inconclusive: 22.4 µM [inhibitor, single point]. In the case of `COc1ccc(OC)c(CNC(=O)c2ccc3c(c2)C(O)CCCCCN3C)c1` (configuration not stated), the Potency is reported as inconclusive: 20 µM [inhibitor, partial curve, poor fit]. `CCOc1ccccc1NC(=O)C(C)Sc1cc(-c2ccccc2)nc(C)n1` (configuration not stated) was tested, and the Potency was inconclusive: 50.1 µM [inhibitor, single point]. `CC(C)c1ccc(CNC(=O)CSc2nc3ccccc3o2)cc1` was tested, and the Potency was “inactive”. For `CC(Sc1n[nH]c(-c2cccs2)n1)C(=O)Nc1ccc(F)cc1` (configuration not stated), the Potency was “inactive”. In the case of `COc1ccc(-c2nnc(SCC(=O)Nc3cccc(F)c3)s2)cc1`, the Potency is reported as inconclusive: 15.8 µM [inhibitor, partial curve, poor fit]. `O=C(Nc1ccc(Cl)cc1)C1CC2CCC1C2` (configuration not stated) was tested, and the Potency was “inactive”. For `CC1=C(C(=O)Nc2ccccc2)C(c2ccccc2)n2nc(-c3ccco3)nc2N1` (configuration not stated), the Potency was inconclusive: 35.5 µM [inhibitor, partial curve, poor fit]. `CCOc1ccc(NC(=O)CSC2=C(C#N)C(c3ccccc3Cl)C(C(C)=O)=C(C)N2)cc1` (configuration not stated) was tested, and the Potency was inconclusive: 39.8 µM [inhibitor, single point]. In the case of `CC(=O)Nc1nnc(SCc2cc(=O)c3cc(C)ccc3[nH]2)s1`, the Potency is reported as inconclusive: 12.6 µM [inhibitor, partial curve, poor fit]. In the case of `CC(C)CCn1c(N2CCN(CC(N)=O)CC2)nc2c1c(=O)[nH]c(=O)n2C`, the Potency is reported as “inactive”. With `COc1cc(C2CC(=O)Nc3c2c(C)nn3-c2ccc(C)cc2)cc(OC)c1O` (configuration not stated) the Potency was “inactive”. For `CC1=C(C(=O)OCC2CCCCC2)C(c2ccc(F)cc2F)CC(=O)N1` (configuration not stated), the Potency was “inactive”. `CN1CC(=O)N(c2ccccc2)Cc2c1ncnc2N1CCN(c2ccccn2)CC1` was tested, and the Potency was inconclusive: 31.6 µM [inhibitor, partial curve, poor fit]. With `O=C(Nc1ccc2nc(N3CCN(C4CCCCC4)CC3)cc(C(=O)O)c2c1)c1ccccc1F` the Potency was inconclusive: 28.2 µM [inhibitor, partial curve, poor fit]. `Oc1c(C(c2ccccc2)N2CCN(Cc3ccccc3)CC2)sc2nc(-c3ccco3)nn12` (configuration not stated) was tested, and the Potency was inconclusive: 25.1 µM [inhibitor, single point]. With `CC(CC(=O)O)CC(=O)N1CCOCC1` (configuration not stated) the Potency was “inactive”. In the case of `Cc1csc2nc(COC(=O)c3ccc(NC(=O)COc4ccccc4F)cc3)cc(=O)n12`, the Potency is reported as inconclusive: 28.2 µM [inhibitor, partial curve, poor fit]. For `COc1cccc(-c2ccc(=O)n(CC(=O)NCCc3ccc(OC)c(OC)c3)n2)c1`, the Potency was “inactive”. For `Cc1ccc(CN(c2ccc(C(=O)NC3CC3)cc2)S(C)(=O)=O)cc1`, the Potency was “inactive”. For `Cn1cc2c3c(cccc31)CN(C(=O)c1cccc(Br)c1)CC2`, the Potency was inconclusive: 31.6 µM [inhibitor, partial curve, poor fit]. In the case of `CC(=O)Nc1ccc(/C=C/c2nc3ccccc3o2)cc1`, the Potency is reported as inconclusive: 25.1 µM [inhibitor, partial curve, poor fit]. With `Cn1ccc2ccc(C(=O)N3CCN(CCOc4ccccc4)CC3)cc21` the Potency was active: 28.2 µM. For `CC(NC(=O)NOCc1ccccc1)c1ccc(C#N)cc1` (configuration not stated), the Potency was “inactive”. `CCCCn1c(=O)n(-c2ccc(Br)cc2F)c(=O)c2c3c(sc21)CN(C(C)=O)CC3` was tested, and the Potency was inconclusive: 28.2 µM [inhibitor, partial curve, poor fit]. For `COc1ccccc1-c1cc2c(ccn2C)c(C(=O)NCC2CCN(C)C(=O)C2)n1` (configuration not stated), the Potency was “inactive”. For `COc1cc2c(cc1OC)C1=CC3(C(=O)Nc4c(C)cccc43)C(C#N)=C(N)N1CC2` (configuration not stated), the Potency was inconclusive: 39.8 µM [inhibitor, single point]. For `COc1ccccc1NC(=O)c1cnc(N2CCCCC2)c2ccccc12`, the Potency was inconclusive: 31.6 µM [inhibitor, single point]. For `O=C(CN1CCN(c2ccc([N+](=O)[O-])c3cnccc23)CC1)Nc1cccc(F)c1`, the Potency was inconclusive: 28.2 µM [inhibitor, partial curve, poor fit]. With `Cc1ccc(OCC(=O)Nc2c(C(=O)c3ccccc3)oc3ccccc23)cc1C` the Potency was inconclusive: 35.5 µM [inhibitor, single point]. For `COC(=O)[C@@H]1Cc2c([nH]c3ccccc23)[C@H]2C[C@H](NCCNC(C)=O)C[C@@H](c3ccc(C(F)(F)F)cc3)N21`, the Potency was active: 10 µM. With `CCOc1cc(C(=O)Nc2ccc(-c3nc4cc(C)ccc4o3)cc2)cc(OCC)c1OCC` the Potency was inconclusive: 1.58 µM [inhibitor, full curve, poor fit]. For `CC1(C(=O)NCc2ccc(Cl)cc2)Cn2c(ccc2-c2ccco2)C(=O)N1C1CC1` (configuration not stated), the Potency was inconclusive: 20 µM [inhibitor, partial curve, poor fit]. For `CC(C)c1ccc(S(=O)(=O)N2CCN(Cn3ncc4ccccc4c3=O)CC2)cc1`, the Potency was “inactive”.
